Results published in PubChem BioAssay AID256 (DTP/NCI, 2004).
Further values from the same series stand in other lists. Inconclusive results and toxic doses are left out. Rule for the calls: active = survival T/C of 150% or more; inactive = T/C below 125% in these data.

System: CD2F1 mice, L1210 leukemia ip, survival T/C
Assay: NCI In Vivo Anticancer Drug Screen. Data for tumor model L1210 Leukemia (intraperitoneal) in CD2F1 (CDF1) mice
Conditions: higher = longer survival
Method in brief: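 Ratio T/C, where T is the treated-group value and C the vehicle-dosed control value, from mice implanted with a transplantable tumor.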

Measured: T/C

NC(=O)c1csc(C2OC(CO)C(O)C2O)n1 (stereo not given)
inactive: endpoint: median survival time, dose: 46.88 mg/kg/injection, schedule: Q01DX005 (ip), vehicle: water 105 % of control | endpoint: median survival time, dose: 187.5 mg/kg/injection, schedule: Q01DX005 (ip), vehicle: water 108 % of control

CN(C)/N=N/c1nc[nH]c1C(N)=O
inactive: endpoint: mean survival time, dose: 6.25 mg/kg/injection, schedule: Q03HX024 (ip), vehicle: steriod suspending solution 111 % of control | endpoint: mean survival time, dose: 12.5 mg/kg/injection, schedule: Q03HX024 (oral), vehicle: steriod suspending solution 111 % of control | endpoint: mean survival time, dose: 18.75 mg/kg/injection, schedule: Q01DX009 (ip), vehicle: Klucel (hydroxypropylcellulose) (HPC) 112 % of control | endpoint: mean survival time, dose: 25.0 mg/kg/injection, schedule: Q03HX016 (ip), vehicle: steriod suspending solution 112 % of control | endpoint: mean survival time, dose: 50.0 mg/kg/injection, schedule: Q04DX003 (ip), vehicle: other 111 % of control | endpoint: mean survival time, dose: 200.0 mg/kg/injection, schedule: Q08DX002 (ip), vehicle: steriod suspending solution 112 % of control | endpoint: median survival time, dose: 14.8 mg/kg/injection, schedule: Q03HX008 (ip), vehicle: Klucel (hydroxypropylcellulose) (HPC) 112 % of control | endpoint: median survival time, dose: 400.0 mg/kg/injection, schedule: Q01DX001 (ip), vehicle: Klucel (hydroxypropylcellulose) (HPC) 112 % of control
